In the assay the target is NFκB transcription factor p65/RelA (human (endogenous in resting CD4+ T cells and PHA-treated T cells from PBMC)) (UniProt Q04206). Description: co-IP.

Amino acid sequences for entries named in this document (tags omitted). A change or cut given only in a name is not applied to a line headed by its entry. Residues count along the entry.
UniProt Q04206: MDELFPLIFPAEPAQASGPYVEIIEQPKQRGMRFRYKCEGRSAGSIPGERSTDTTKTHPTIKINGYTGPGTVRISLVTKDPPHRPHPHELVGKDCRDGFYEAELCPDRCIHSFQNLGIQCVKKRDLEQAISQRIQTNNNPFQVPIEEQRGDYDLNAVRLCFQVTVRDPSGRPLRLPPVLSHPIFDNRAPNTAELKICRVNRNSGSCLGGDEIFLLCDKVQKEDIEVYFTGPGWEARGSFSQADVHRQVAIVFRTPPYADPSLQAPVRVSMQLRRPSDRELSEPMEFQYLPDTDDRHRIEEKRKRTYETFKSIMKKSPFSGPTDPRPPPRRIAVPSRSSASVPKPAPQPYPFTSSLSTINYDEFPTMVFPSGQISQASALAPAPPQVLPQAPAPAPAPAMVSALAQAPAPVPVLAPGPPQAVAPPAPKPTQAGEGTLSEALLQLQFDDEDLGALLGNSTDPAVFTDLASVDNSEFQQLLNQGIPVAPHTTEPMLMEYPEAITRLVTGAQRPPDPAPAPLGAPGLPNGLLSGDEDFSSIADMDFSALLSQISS
UniProt Q9UJU2: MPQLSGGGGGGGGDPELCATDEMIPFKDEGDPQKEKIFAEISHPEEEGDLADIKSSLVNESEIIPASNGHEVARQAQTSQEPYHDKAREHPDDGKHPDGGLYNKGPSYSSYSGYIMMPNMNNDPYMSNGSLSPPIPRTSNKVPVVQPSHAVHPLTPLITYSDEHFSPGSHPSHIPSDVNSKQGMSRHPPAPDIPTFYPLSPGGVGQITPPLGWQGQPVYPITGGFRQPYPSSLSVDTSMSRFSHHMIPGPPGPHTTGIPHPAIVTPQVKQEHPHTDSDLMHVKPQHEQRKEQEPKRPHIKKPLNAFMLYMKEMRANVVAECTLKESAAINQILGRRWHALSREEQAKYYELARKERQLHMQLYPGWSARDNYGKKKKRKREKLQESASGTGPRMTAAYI
UniProt O15111: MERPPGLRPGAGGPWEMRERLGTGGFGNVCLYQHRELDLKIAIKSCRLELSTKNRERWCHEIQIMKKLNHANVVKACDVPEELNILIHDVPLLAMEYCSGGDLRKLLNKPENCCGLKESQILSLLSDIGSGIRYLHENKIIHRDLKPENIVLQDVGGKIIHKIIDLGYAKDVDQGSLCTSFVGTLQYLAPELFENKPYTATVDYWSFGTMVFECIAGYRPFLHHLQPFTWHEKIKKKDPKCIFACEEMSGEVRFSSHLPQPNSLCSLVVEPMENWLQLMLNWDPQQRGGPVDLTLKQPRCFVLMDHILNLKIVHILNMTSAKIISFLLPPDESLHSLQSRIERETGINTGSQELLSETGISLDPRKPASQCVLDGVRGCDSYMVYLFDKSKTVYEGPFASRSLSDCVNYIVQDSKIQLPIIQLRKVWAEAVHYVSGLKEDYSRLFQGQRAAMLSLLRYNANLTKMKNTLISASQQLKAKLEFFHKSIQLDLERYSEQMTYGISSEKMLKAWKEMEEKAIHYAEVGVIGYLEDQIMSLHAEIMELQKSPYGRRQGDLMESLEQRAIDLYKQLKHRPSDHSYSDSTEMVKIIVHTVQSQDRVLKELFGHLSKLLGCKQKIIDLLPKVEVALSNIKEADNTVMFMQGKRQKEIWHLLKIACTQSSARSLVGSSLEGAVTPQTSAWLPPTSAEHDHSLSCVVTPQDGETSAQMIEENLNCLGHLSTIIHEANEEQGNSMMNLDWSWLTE
UniProt P19838, residues 1-433: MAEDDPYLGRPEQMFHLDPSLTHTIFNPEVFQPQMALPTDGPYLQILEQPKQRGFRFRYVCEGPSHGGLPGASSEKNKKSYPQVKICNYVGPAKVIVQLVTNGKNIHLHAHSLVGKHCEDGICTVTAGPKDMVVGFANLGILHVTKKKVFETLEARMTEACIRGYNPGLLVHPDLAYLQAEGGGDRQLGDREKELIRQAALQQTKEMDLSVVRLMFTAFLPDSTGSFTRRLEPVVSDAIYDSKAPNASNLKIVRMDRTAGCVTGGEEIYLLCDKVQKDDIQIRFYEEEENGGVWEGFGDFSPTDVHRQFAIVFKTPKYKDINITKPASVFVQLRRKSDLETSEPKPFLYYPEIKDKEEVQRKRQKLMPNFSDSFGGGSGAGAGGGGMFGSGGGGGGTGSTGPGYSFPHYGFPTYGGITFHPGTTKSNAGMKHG
UniProt P36402: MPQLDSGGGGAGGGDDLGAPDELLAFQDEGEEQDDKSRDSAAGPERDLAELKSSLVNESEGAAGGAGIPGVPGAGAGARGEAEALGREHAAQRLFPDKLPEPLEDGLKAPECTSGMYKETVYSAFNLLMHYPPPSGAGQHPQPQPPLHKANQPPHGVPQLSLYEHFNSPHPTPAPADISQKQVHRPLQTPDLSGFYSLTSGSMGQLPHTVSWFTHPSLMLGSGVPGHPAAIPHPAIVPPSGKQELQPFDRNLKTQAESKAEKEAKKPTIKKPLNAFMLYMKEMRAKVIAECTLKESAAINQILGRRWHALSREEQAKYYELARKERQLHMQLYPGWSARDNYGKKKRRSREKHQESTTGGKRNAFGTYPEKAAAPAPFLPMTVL

No constants are given. Whether binding was seen depends on the method and setting. In cells and extracts the contact can be indirect. Some binding calls cover weakened binding; strength is not graded here.

In the case of LEF1 (from UniProt Q9UJU2 1-399), the binding result is on record as “no binding”. For “phosphorylated IKKα/β (from UniProt O15111 1-745; O14920 1-756) (complex)” the value was “binds”; for p50 (from UniProt P19838 1-433), “binds”; for TCF1 (from UniProt P36402 1-384), “no binding”.

For the origin of these results see PMC11999137.
